# Some of the results follow.
# B1: Epa15 (Candida glabrata) (protein)
# chain: MGSSHHHHHHSSGLVPRGSHMASDPTTFPLGCSPEFTKTKKGLSMELYRYDYLPPGSYPCWDSAYLNPSYPRTGYKAKKLIATVDGVSGDINFKFNPKFGCKAIPDYLPSNFNYHEPITITNFTMILYGYFMPKTTAFHTFYVTADDLLFMNFGAGNAFDCCRREETADKFGNYAAYSVWGKKSLKNELTVYLHTGVYYPIRLFYNNRDYIAQLDIRFKTEHSNAIITNFTDYFYSVDDSSLGCPGLI
# Columns and labels:
# Assay in all cases: glycan array binding signal (z-score within array); higher = stronger binding
# Conditions in all cases: glycan notation: IUPAC condensed, linker removed
# [1] = target: Fuc(a1-2)Gal(b1-4)GlcNAc(b1-3)Gal(b1-4)GlcNAc
# In short: (§1)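 Glycan array data were curated from 3228 arrays in the Consortium for Functional Glycomics database and kept only where the protein sequence was available. Glycan names were converted to IUPAC-condensed notation, and columns mapping to the same glycan were averaged. The binding signal is a within-array Z-score, averaged across arrays of the same protein sequence at different concentrations or buffers and across linkers. Negative Z-scores can be read as non-binding.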
# [2] = target: Fuc(a1-2)Gal(b1-4)GlcNAc(b1-3)Gal(b1-4)GlcNAc(b1-2)Man(a1-3)[Fuc(a1-2)Gal(b1-4)GlcNAc(b1-3)Gal(b1-4)GlcNAc(b1-2)Man(a1-6)]Man(b1-4)GlcNAc(b1-4)GlcNAc
# In short: as §1
# [3] = target: Fuc(a1-2)Gal(b1-4)GlcNAc(b1-3)Gal(b1-4)GlcNAc(b1-3)Gal(b1-4)GlcNAc
# In short: as §1
# [4] = target: Fuc(a1-2)Gal(b1-4)GlcNAc(b1-3)GalNAc
# In short: as §1
# [5] = target: Fuc(a1-2)Gal(b1-4)GlcNAc(b1-3)[Fuc(a1-2)Gal(b1-4)GlcNAc(b1-6)]GalNAc
# In short: as §1
# [6] = target: Fuc(a1-2)Gal(b1-4)GlcNAc(b1-3)[Fuc(a1-3)[Gal(b1-4)]GlcNAc(b1-6)]Gal(b1-4)Glc
# In short: as §1
# [7] = target: Fuc(a1-2)Gal(b1-4)GlcNAc(b1-6)GalNAc
# In short: as §1
# [8] = target: Fuc(a1-2)Gal(b1-4)GlcNAc6S
# In short: as §1
# [9] = target: Fuc(a1-2)Gal(b1-4)[Fuc(a1-3)]GalNAc(b1-3)Gal(b1-4)[Fuc(a1-3)]GlcNAc
# In short: as §1
# [10] = target: Fuc(a1-2)Gal(b1-4)[Fuc(a1-3)]GalNAc(b1-3)Gal(b1-4)[Fuc(a1-3)]GlcNAc(b1-3)Gal(b1-4)[Fuc(a1-3)]GalNAc
# In short: as §1
# [11] = target: Fuc(a1-2)Gal(b1-4)[Fuc(a1-3)]GlcNAc
# In short: as §1
# [12] = target: Fuc(a1-2)Gal(b1-4)[Fuc(a1-3)]GlcNAc(b1-2)Man(a1-3)[Fuc(a1-2)Gal(b1-4)[Fuc(a1-3)]GlcNAc(b1-2)Man(a1-6)]Man(b1-4)GlcNAc(b1-4)[Fuc(a1-6)]GlcNAc
# In short: as §1
# [13] = target: Fuc(a1-2)Gal(b1-4)[Fuc(a1-3)]GlcNAc(b1-2)[Fuc(a1-2)Gal(b1-4)[Fuc(a1-3)]GlcNAc(b1-4)]Man(a1-3)[Fuc(a1-2)Gal(b1-4)[Fuc(a1-3)]GlcNAc(b1-2)Man(a1-6)]Man(b1-4)GlcNAc(b1-4)GlcNAc
# In short: as §1
# [14] = target: Fuc(a1-2)Gal(b1-4)[Fuc(a1-3)]GlcNAc(b1-3)Gal(b1-4)[Fuc(a1-3)]GlcNAc
# In short: as §1
# [15] = target: Fuc(a1-2)Gal(b1-4)[Fuc(a1-3)]GlcNAc(b1-3)Gal(b1-4)[Fuc(a1-3)]GlcNAc(b1-3)Gal(b1-4)[Fuc(a1-3)]GlcNAc
# In short: as §1
# [16] = target: Fuc(a1-2)Gal(b1-4)[Fuc(a1-3)]GlcNAc(b1-3)GalNAc
# In short: as §1
# [17] = target: Fuc(a1-2)Gal(b1-4)[Fuc(a1-3)]GlcNAc(b1-3)[Neu5Ac(a2-6)Gal(b1-4)GlcNAc(b1-6)]Gal(b1-4)Glc
# In short: as §1
# [18] = target: Fuc(a1-2)Gal3S(b1-4)GlcNAc
# In short: as §1
# [19] = target: Fuc(a1-2)Gal6S(b1-3)GlcNAc
# In short: as §1
# [20] = target: Fuc(a1-2)Gal6S(b1-3)GlcNAc6S
# In short: as §1
# Fuc(a1-2)Gal6S(b1-4)Glc = target: Fuc(a1-2)Gal6S(b1-4)Glc
# In short: as §1
# [21] = target: Fuc(a1-2)Gal6S(b1-4)Glc6S
# In short: as §1
# [22] = target: Fuc(a1-2)Gal6S(b1-4)GlcNAc
# In short: as §1
# Fuc(a1-2)GlcNAc = target: Fuc(a1-2)GlcNAc
# In short: as §1
# Fuc(a1-2)[Gal(a1-3)]Gal = target: Fuc(a1-2)[Gal(a1-3)]Gal
# In short: as §1
# [23] = target: Fuc(a1-2)[Gal(a1-3)]Gal(b1-3)GalNAc
# In short: as §1
# [24] = target: Fuc(a1-2)[Gal(a1-3)]Gal(b1-3)GalNAc(b1-3)Gal(a1-4)Gal(b1-4)Glc
# In short: as §1
# [25] = target: Fuc(a1-2)[Gal(a1-3)]Gal(b1-3)GlcNAc
# In short: as §1
# [26] = target: Fuc(a1-2)[Gal(a1-3)]Gal(b1-3)GlcNAc(b1-2)Man(a1-3)[Fuc(a1-2)[Gal(a1-3)]Gal(b1-3)GlcNAc(b1-2)Man(a1-6)]Man(b1-4)GlcNAc(b1-4)GlcNAc
# In short: as §1
# [27] = target: Fuc(a1-2)[Gal(a1-3)]Gal(b1-3)GlcNAc(b1-2)Man(a1-3)[Fuc(a1-2)[Gal(a1-3)]Gal(b1-3)GlcNAc(b1-2)Man(a1-6)]Man(b1-4)GlcNAc(b1-4)[Fuc(a1-6)]GlcNAc
# In short: as §1
binder,measurement,setting,value
B1,glycan array binding signal (z-score),[1],-0.547
same,glycan array binding signal (z-score),[2],-0.322
same,glycan array binding signal (z-score),[3],-0.205
same,glycan array binding signal (z-score),[4],-0.4
same,glycan array binding signal (z-score),[5],0.374
same,glycan array binding signal (z-score),[6],-0.321
same,glycan array binding signal (z-score),[7],0.159
same,glycan array binding signal (z-score),[8],-0.4
same,glycan array binding signal (z-score),[9],-0.284
same,glycan array binding signal (z-score),[10],-0.281
same,glycan array binding signal (z-score),[11],-0.361
same,glycan array binding signal (z-score),[12],0.04
same,glycan array binding signal (z-score),[13],0.306
same,glycan array binding signal (z-score),[14],-0.428
same,glycan array binding signal (z-score),[15],-0.446
same,glycan array binding signal (z-score),[16],1.59
same,glycan array binding signal (z-score),[17],-0.092
same,glycan array binding signal (z-score),[18],-0.532
same,glycan array binding signal (z-score),[19],-0.251
same,glycan array binding signal (z-score),[20],0.063
same,glycan array binding signal (z-score),Fuc(a1-2)Gal6S(b1-4)Glc,-0.434
same,glycan array binding signal (z-score),[21],-0.401
same,glycan array binding signal (z-score),[22],-0.285
same,glycan array binding signal (z-score),Fuc(a1-2)GlcNAc,-0.263
same,glycan array binding signal (z-score),Fuc(a1-2)[Gal(a1-3)]Gal,-0.319
same,glycan array binding signal (z-score),[23],-0.127
same,glycan array binding signal (z-score),[24],-0.503
same,glycan array binding signal (z-score),[25],-0.451
same,glycan array binding signal (z-score),[26],-0.239
same,glycan array binding signal (z-score),[27],0.153
